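Values below derive from 48-hour exposures of cells grown in 96-well plates, with endpoints linearly interpolated between the two concentrations bracketing the appropriate inhibition level. GI50: concentration for 50% inhibition of growth. TGI denotes the concentration required for complete inhibition of growth.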
Test system: NCI-H322M lung
Assay: NCI-60 cell line screen, 48 h

`COc1ccc2[nH]cc(-c3cc4nc(-c5cn(C)c6ncc(Br)cc56)cc(N)n4n3)c2c1` was tested, and the GI50 was 1.75 µM and the TGI was 5.47 µM.

In the case of `O=C1Nc2cc(Cl)ccc2/C1=C/c1cccc(OCc2ccccc2)c1`, the GI50 is reported as 11.3 µM and the TGI is reported as 27.5 µM.

With `C=C1CCC2C3(C)COC(c4ccccc4)OC3CCC2(C)C1CC(Sc1ccccc1)C1=CCOC1=O` (stereo not given) the GI50 was 35.3 µM and the TGI was > 100 µM.

`O=C(Nc1ccc(OCc2ccc(F)cc2)cc1)Nc1ccc(Cl)c(C(F)(F)F)c1` was tested, and the GI50 was 2.93 µM and the TGI was 11.6 µM.

With `C/C(=N/O)c1ccc(NC(=O)CSc2nnc(-c3ccc(-c4nc5ccc(Cl)cc5[nH]4)cc3)o2)cc1` the GI50 was 1.98 µM and the TGI was 4.83 µM.

From PubChem BioAssay (NCI)
